Data published in PubChem BioAssay AID624417 (National Center for Advancing Translational Sciences (NCATS), 2012).
Values joined by “and” are separate entries in the source; they are usually repeats but may differ in a detail not shown here. Equal entries are not always repeated. Hit rate of the full screen: of about 410,000 compounds, about 6,400 (1.6%) were called active. Inconclusive results, whose numbers are uncertain, are shown with a selection of clear calls. The call rests on the fitted dose curve; in most records, active means well fitted inhibition curve with a large enough effect; inconclusive means small, poorly fitted or top-dose-only effect; inactive means no such curve, though single readings can be large or run the other way. Where the call is inconclusive, the potency comes from a doubtful curve fit.

molecular target: Glucagon-like peptide 1 receptor (Homo sapiens) (UniProt P43220); test: qHTS of GLP-1 Receptor Inverse Agonists (Inhibition Mode); conditions: HEK293 GLP-1R CRE-luciferase, luminescence, 24 h, GLP-1R form is constitutively active; series mostly up to 38.3 µM; further: nearly all actives have a fitted effect of over 55% in size
Sequence of UniProt P43220 (P43220 whole entry, looked up): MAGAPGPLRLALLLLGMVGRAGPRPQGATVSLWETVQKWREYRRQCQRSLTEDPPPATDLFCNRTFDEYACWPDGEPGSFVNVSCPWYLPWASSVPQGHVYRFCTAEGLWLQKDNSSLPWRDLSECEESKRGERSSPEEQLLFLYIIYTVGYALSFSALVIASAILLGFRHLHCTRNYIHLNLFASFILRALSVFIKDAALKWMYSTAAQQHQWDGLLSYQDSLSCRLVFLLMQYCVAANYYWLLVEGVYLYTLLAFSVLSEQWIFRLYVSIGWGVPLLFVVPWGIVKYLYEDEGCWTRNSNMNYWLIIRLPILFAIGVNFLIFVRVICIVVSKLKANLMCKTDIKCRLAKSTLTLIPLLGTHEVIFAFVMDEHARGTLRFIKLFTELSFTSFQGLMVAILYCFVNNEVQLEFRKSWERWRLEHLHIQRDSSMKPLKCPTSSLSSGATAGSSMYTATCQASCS
In short: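 Inverse agonists were sought by their lowering of basal cAMP reporter luciferase output in HEK293 cells stably carrying constitutively active human GLP-1R, after 24 h compound treatment.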
Potency means the concentration at half of the fitted maximal effect; tags describe the fitted curve by direction and shape.

Structure (SMILES)	Potency
C/C(=N\Nc1ncnc2sc(C)c(C)c12)c1ccccn1	inconclusive: 1 µM [inhibitor, full curve, poor fit]
CCCOC(=O)c1ccc(NC(=O)CC(C)(C)C)cc1	inconclusive: 28.2 µM [inhibitor, single point]
Cc1c(Cl)cccc1NC(=S)NC1CCN(C(C)C)CC1	inconclusive: 15.8 µM [inhibitor, single point]
CCCCCC[n+]1c(-c2ccccc2)csc1Nc1ccccc1	active: 2.24 µM
CCCCCCSc1ccc([C@@H]2[C@@H]3C(=O)N(CC)C(=O)[C@@H]3[C@]3(C(=O)OC)CCCCN23)cc1	inconclusive: 5.62 µM [inhibitor, full curve, poor fit]
Cc1noc(/C=C/N(C)C)c1S(=O)(=O)N1CCN(c2ccccc2)CC1	inconclusive: 28.2 µM [inhibitor, single point]
COC(=O)c1sccc1NC(=S)N1CCCC(C)C1 (stereo not given)	inconclusive: 12.6 µM [inhibitor, partial curve, poor fit]
Cc1cc2n(n1)C(c1ccccc1)CC(c1ccc(Br)cc1)=N2 (stereo not given)	inconclusive: 11.2 µM [inhibitor, partial curve, poor fit]
COc1cccc(CN2C(=O)N(c3ccc(C)cc3)C(=O)C2CC(=O)Nc2cc(OC)cc(OC)c2)c1 (stereo not given)	inconclusive: 12.6 µM [inhibitor, single point]
CCOC(=O)CC(NC(=O)CCc1c(C)nc2c(-c3ccccc3)c(C)nn2c1C)c1ccc(C)cc1 (stereo not given)	inactive
C[C@@H](NC(=O)c1nc[nH]c1C(=O)N[C@@H](Cc1ccccc1)C(=O)OCc1ccccc1)c1ccccc1	inconclusive: 12.6 µM [inhibitor, single point]
CCOC(=O)c1ccc([N+](=O)[O-])c(CS(=O)(=O)c2ccc(Cl)cc2)c1	inconclusive: 8.91 µM [inhibitor, partial curve, poor fit]
Cc1ccc(CNC(=O)C2CCN(C(=O)c3ccc(-n4ccc5ccccc54)s3)CC2)cc1	inactive
CCOc1ccc(C(=O)Nc2ccc(N3CCN(C)CC3)cc2)cc1Br	inconclusive: 1.58 µM [inhibitor, partial curve, poor fit]
Cc1ccc(-n2nnc(-c3nsc(NC(=O)c4ccccc4C)n3)c2C)cc1Cl	inactive
O=C(Nc1ccc(F)cc1)N1CCN(c2ccc3nnc(-c4ccc(F)cc4)n3n2)CC1	inconclusive: 28.2 µM [inhibitor, single point] and inconclusive: 12.6 µM [inhibitor, single point]
COc1ccc(-c2csc(NC(=O)c3ccccc3NS(=O)(=O)c3ccc(F)c(F)c3)n2)cc1	inconclusive: 4.47 µM [inhibitor, partial curve, poor fit]
CCOc1ccc(Nc2c(S(=O)(=O)c3ccc(Cl)cc3)cnc3ccc(OC)cc23)cc1	inconclusive: 28.2 µM [inhibitor, single point]
CC1CCN(S(=O)(=O)c2ccc3c(c2)c(=O)c(C(=O)NCc2ccc(Cl)cc2)cn3C)CC1	inactive
COc1cc2c(cc1NC(=O)Nc1ccc(C)cc1)oc1ccccc12	active: 1.78 µM

Structure (SMILES)	Potency
O=C(Nc1ccc(Cl)c(C(F)(F)F)c1)C1CCCN(S(=O)(=O)c2cccc3cccnc23)C1 (stereo not given)	inactive
COc1ccc(O)c(/C=N/NC(=O)CCC(=O)Nc2ccc(F)cc2)c1	inconclusive: 22.4 µM [inhibitor, single point]
Cc1ccccc1CN1N=C(/C=C/c2ccccc2)CCC1=O	inconclusive: 15.8 µM [inhibitor, single point]
O=C(c1ccccc1-c1nc(-c2ccc(F)cc2)no1)N1CCCC1	inconclusive: 28.2 µM [inhibitor, single point]
O=C(CSc1cccc(C(F)(F)F)c1)NCc1ccccc1	inconclusive: 7.94 µM [inhibitor, partial curve, poor fit]
CCOC(=O)N1CCC(Nc2c(NCCCN(CC)c3cccc(C)c3)c(=O)c2=O)CC1	inconclusive: 28.2 µM [inhibitor, single point]
Cc1onc(-c2ccccc2Cl)c1C(=O)OCC(=O)Nc1cccc(S(=O)(=O)N2CCOCC2)c1	inconclusive: 15.8 µM [inhibitor, single point]
CCOC(=O)c1[nH]c(COC(=O)CCCOc2ccccc2)c(C(=O)OCC)c1C	inactive
Cc1c(Cl)cccc1NC(=O)CSc1ncnc2c1cnn2CCc1ccccc1	inconclusive: 0.501 µM [inhibitor, full curve, poor fit]
COc1cccc(CN2CCC2(C)C(=O)Nc2ccc3c(c2)CCN3C(C)=O)c1F (stereo not given)	inconclusive: 7.08 µM [inhibitor, partial curve, poor fit]
CCOC(=O)C1(Cc2ccc(OC)cc2)CCN(C(=O)C2=CCCC2)CC1	inconclusive: 11.2 µM [inhibitor, partial curve]
CC(=O)c1ccc(N2CCN(c3ccccc3O)CC2)c([N+](=O)[O-])c1	inconclusive: 28.2 µM [inhibitor, single point]
CC(C)(C)C1CCC(OCC(O)CN2CCN(c3ccccn3)CC2)CC1 (stereo not given)	inconclusive: 31.6 µM [inhibitor, partial curve, poor fit]
O=C(COC(=O)c1ccc2[nH]c3c(c2c1)CCCC3)NC1CCS(=O)(=O)C1 (stereo not given)	inconclusive: 10 µM [inhibitor, partial curve, poor fit]
Cc1cccc(NC(=O)CSc2nnc3scc(-c4ccccc4)n23)c1	inactive
Cc1c(Cl)cccc1NC(=S)NCCc1ccc(S(N)(=O)=O)cc1	inactive
O=C(N/N=C/c1cc2c(cc1Br)OCO2)c1c[nH]c2ccccc12	inconclusive: 17.8 µM [inhibitor, single point]
O=C(Nc1ccc(OCC(F)(F)C(F)F)c(C(F)(F)F)c1)c1ccccc1	inconclusive: 3.98 µM [inhibitor, full curve, poor fit]
CC(=O)c1cccc(-c2ccnc3c2CC(C(=O)Nc2cccc(OC(F)(F)F)c2)O3)c1 (stereo not given)	inconclusive: 28.2 µM [inhibitor, single point]
CCc1ccc2oc(-c3ccc(C)c(NC(=O)c4ccc(C#N)cc4F)c3)nc2c1	inactive

Structure (SMILES)	Potency
CCOC(=O)c1ccc(NC(=O)CCC(=O)N2CCSc3ccccc32)cc1	inconclusive: 11.2 µM [inhibitor, single point]
O=C1NN(c2ccccc2)C(=O)/C1=C/c1coc2ccccc2c1=O	inconclusive: 3.55 µM [inhibitor, single point]
Cc1ccc(-n2cc(CNCC3CC(=O)N(C4CC4)C3)c(-c3cccc(C)c3)n2)cc1 (stereo not given)	inconclusive: 14.1 µM [inhibitor, single point]
COc1ccccc1CCC(=O)N1CCN(S(=O)(=O)c2cc(C(F)(F)F)ccc2Cl)CC1	inconclusive: 28.2 µM [inhibitor, single point]
CCCCNC(=O)c1onc(CSc2cccc(F)c2)c1C(=O)O	inconclusive: 12.6 µM [inhibitor, single point]
CN(C)CCCNC(=O)C[C@H]1C[C@H](C(=O)N2CCCCC2)[C@@]2(C)c3[nH]c4ccc(Cl)cc4c3CCN2C1=O	inconclusive: 14.1 µM [inhibitor, single point]
COC(=O)C(Cc1ccccc1)NC(=O)CCCC(=O)NCc1cccc(OC)c1 (stereo not given)	inactive
Cc1ccc(S(=O)(=O)CC(=O)N(CCCN(C)C)c2nc3ccc(C)cc3s2)cc1	inconclusive: 14.1 µM [inhibitor, single point]
CCCCc1nc2cc(C(=O)N3CCC(O)CC3)ccc2o1	inconclusive: 7.94 µM [inhibitor, partial curve, poor fit]
Cc1[nH]c2ccccc2c1C(=O)CSc1nc2ccccc2c(=O)n1CCCN1CCOCC1	inconclusive: 31.6 µM [inhibitor, partial curve, poor fit]
CC(C)c1ccc(NC(=O)CSc2nc(=O)n(CCCN3CCOCC3)c3c2CCC3)cc1	inconclusive: 28.2 µM [inhibitor, single point]
Cc1ccc(S(=O)(=O)C(CNC(=O)c2ccc(C(F)(F)F)cc2)c2ccco2)cc1 (stereo not given)	inconclusive: 10 µM [inhibitor, partial curve, poor fit]
Cc1nn(-c2ccc(Br)cc2)c(=O)c2ccccc12	inconclusive: 28.2 µM [inhibitor, single point]
C/C(=N\Nc1nc2ccccc2[nH]1)c1ccc(N2CCOCC2)cc1	inconclusive: 20 µM [inhibitor, single point]
Cc1[nH]c2ccc(C(=O)NCCCN(C)C3CCCCC3)cc2c1C	inconclusive: 11.2 µM [inhibitor, partial curve, poor fit]
Cc1nc2nc(SCC(=O)NC3CCC(C)CC3)nn2c(C)c1Cc1ccccc1Cl (stereo not given)	inconclusive: 10 µM [inhibitor, partial curve]
Cc1csc(NC(=O)CCc2c(C)nc3cc(-c4cccc(F)c4)nn3c2C)n1	inconclusive: 28.2 µM [inhibitor, single point]
O=C(Cn1cc(S(=O)(=O)c2ccccc2)c(=O)c2cc3c(cc21)OCO3)Nc1ccccc1	inactive
CN1CCCN(S(=O)(=O)c2cccc(C(F)(F)F)c2)c2nc3ccccc3nc21	inconclusive: 14.1 µM [inhibitor, single point]
O=C(CCCc1ccccc1)Nc1ccnn1C1CCN(Cc2ccccc2)CC1	inconclusive: 28.2 µM [inhibitor, single point]
